# Laboratory results published in ChEMBL document CHEMBL4888484, “Replenishing the malaria drug discovery pipeline: Screening and hit evaluation of the MMV Hit Generation Library 1 (HGL1) against asexual blood stage Plasmodium falciparum ,using a nano luciferase reporter read-out” (2022).
# In all, about 150,000 compounds went through this assay and about 540 (0.36%) showed an effect of 50% or more. The list shows a part of the results.
# Test system: Plasmodium falciparum
# Assay: Primary screen in NF54 nanoGlo assay, in single point, at 2uM, 72h; a lower Z score goes with more inhibition
# Type: functional, Erythrocyte
# Conditions: timepoint 72 hour
Compound,% Inhibition,Z score
CCOc1ccccc1C(=O)N1C[C@H]2CN(C(=O)c3ccccc3)C[C@@]2(CO)C1,-13%,1.72
CCCCN1C(=O)[C@H]2[C@H]([C@H](O)c3ccc(Cl)cc3)N[C@@]3(C(=O)Nc4ccccc43)[C@H]2C1=O,43%,-6.76
CN(C)c1nnc(CNS(=O)(=O)C[C@@]2(C)CC2(F)F)[nH]1,-11%,2.09
COc1cc(-c2ccc(C(=O)NCCNS(C)(=O)=O)cc2)nc(N)n1,6%,-1.05
CCCc1nnsc1C(=O)N[C@@H]1COCC[C@@H]1Oc1ccc(C)nc1,-6%,0.66
C=CC[C@H](CC)NC(=O)Nc1c(CC)noc1C,-5%,0.52
O=S(=O)(NCc1ccc2sccc2c1)N1CCCC1,-17%,2.56
O[C@H]1Cc2ccccc2C12CCN(Cc1ccc(-c3cc[nH]n3)o1)CC2,-3%,0.53
Cc1ccc2nc(N3CCC[C@H](O)C3)c(CN3CC(O)C3)cc2c1,-11%,1.93
Cc1ccc(N(C(=O)c2cnc3ccccc3n2)C2CCCCC2)nc1,-7%,1.06
Cc1[nH]nc(CCc2ncnn2CCc2ccccc2)c1C,-10%,1.36
NC(=O)c1nccnc1C(=O)NC1CCCC1c1ccc(Cl)cc1 (centres undefined),-14%,2.2
COc1cccc(Cn2c(C)c(C3=CCN(S(=O)(=O)c4c(C)noc4C)CC3)c3ccccc32)c1,-5%,0.62
Cc1cc(Oc2ncccn2)ccc1NC(=O)c1n[nH]c2ccccc12,4%,-0.6
Nc1cncc(-c2cnc3[nH]ccc3c2)c1,-6%,0.8
O=C1C[C@H](c2nc(C3CCC3)no2)CN1c1cccc(O)c1,-17%,3.32
O=C(Nc1cccc(-c2noc(-c3cccnc3)n2)c1)c1cccs1,-24%,2.15
Nc1ncc(-c2cc(F)ccc2OC[C@H]2CCOC2)cn1,0%,-0.02
Oc1ccc2c(c1)Oc1ncn3nc(-c4ccccc4)nc3c1[C@H]2c1ccccc1,27%,-3.06
O=C(CC1CCCC1)NCC1CCOCC1,-4%,0.72
O=C(Nc1cccc2ccccc12)c1nn2c(C(F)(F)F)cc(-c3ccccc3)nc2c1Br,-15%,2.43

Compound,% Inhibition,Z score
O=C(Nc1ccc2c(c1)OCO2)c1ccc(COc2ccc3c(c2)CCC3)o1,5%,-0.61
CCOC1CC(NC(=O)NCC2(CO)CC2)C12CCCC2 (centres undefined),-3%,0.43
CC(=O)N1CCN(C(=O)Nc2cccc3c2CCCC3)CC1,-7%,0.97
Cc1ccc(Nc2nc(N)nc(COC(=O)c3ccc(N4CCOCC4)nc3)n2)cc1,-15%,1.93
CCn1nccc1C(=O)Nc1nc2cc3c(cc2s1)OCCO3,-5%,0.94
COc1cc(CNn2nnnc2N)cc(Br)c1OCc1ccc(F)cc1,-13%,1.47
Cc1noc([C@@H]2CCCN2S(=O)(=O)CCC2CC2)n1,21%,-2.64
Cc1cc(CN(C)[C@H]2CCN(CC(F)(F)F)C2=O)no1,3%,-0.41
CC(=O)N1CCC[C@](c2nnnn2CCC(C)C)(N2CCN(c3ccccc3F)CC2)C1,0%,0.05
CCc1cc(-c2ccc(C(=O)N[C@H]3CC[C@H](O)CC3)cc2)nc(N(C)C)n1,-5%,0.71
C[C@H]1CN(CC(C)(C)O)CCN1C(=O)NCC1CC(F)(F)C1,-9%,1.45
Cc1cc(O)n2nc(Cc3nc(-c4ccccc4C(F)(F)F)no3)nc2n1,1%,-0.21
O=S(=O)(N[C@H]1CCCN(C2CCCCCC2)C1)c1cc2ccccc2o1,-7%,1.36
CCN(C[C@H](C)C#N)C(=O)c1cc(F)cc(Cl)c1O,-10%,0.99
COc1cc(CNc2ncc(C(N)=O)s2)cc(OC)c1OC,-5%,0.75
C=CCN(C)C(=O)c1cnn2c3c(cnc12)CCCCCC3,-4%,0.64
Cc1ccc(-c2cn3ccn(-c4ccc5c(c4)CCC5)c(=O)c3n2)c(C)c1,-17%,2.29
COC(=O)[C@@H]1CN(C(=O)c2ccn(C)n2)c2ccc(F)cc2O1,-10%,1.98
Cc1ccc(O)c(NC(=O)c2nn3c(c2Cl)N[C@@H](c2cccs2)C[C@H]3C(F)(F)F)c1,8%,-1.22
COCCN1C(=O)c2ccccc2C(C(=O)NCCN2CCOCC2)C1c1ccc(F)cc1 (centres undefined),1%,-0.2
Cc1noc2ncnc(NC[C@H]3Cc4ccccc43)c12,-6%,1

Compound,% Inhibition,Z score
O=C(Cc1noc(C2(c3ccccc3)CC2)n1)NC1CCCCC1,-8%,1.04
O=C(Nc1ccc(Oc2nncc3ccccc23)cc1)C(F)F,43%,-3.86
Cc1nn(C)c2nc(N3CCC(C#N)CC3)sc12,-7%,1.23
C[C@@H](C(=O)NCc1cccs1)N(C)Cc1cccc(Cl)c1Cl,6%,-0.88
Cn1cccc1C(=O)NCc1cccc(NC(=O)c2cccn2C)c1,-10%,1.23
Cc1nc2c(c(N(C)Cc3nnc4n3CCN(C)C4=O)n1)CCCC2,-7%,1.21
O=C(NCCCn1nccc1C1CC1)c1cnn[nH]1,2%,-0.32
COc1ccc(CCC(=O)N2CC(OCc3ccc(F)cc3Cl)C2)cc1,-24%,2.24
Cn1c(=O)c(-c2ccc(C(=O)NCc3cc(F)cc(F)c3)cc2)nc2cccnc21,-3%,0.49
Cc1cccc(C(=O)N2CC[C@@H]3OCC(=O)N[C@H]3C2)c1C,-1%,0.21
O=C(C[C@H]1CCOC2(CCN(C(=O)c3cccc4[nH]ccc34)CC2)C1)N1CCCC1,-8%,0.87
O=c1[nH]c(-c2ccccc2)c[n+]2ccccc12,5%,-0.64
CCn1c(=O)n(Cc2cnc(C)s2)c2ccccc21,-8%,1.29
COc1ccc(-c2cnc3ncnn3c2N2CCCN(S(=O)(=O)c3ccc(F)cc3F)CC2)cc1OC,-12%,1.17
O=C(C#Cc1ccccc1)N(CC1CCN(Cc2ccccc2F)CC1)C[C@H]1CCCO1,1%,-0.14
CS(=O)(=O)NCCN(Cc1csc(C2CC2)n1)C1CC1,-6%,0.77
C[C@@H](CS(C)(=O)=O)NC(C)(C)Cc1cccc(Br)c1,-3%,0.48
Cc1noc(C)c1Cc1nnc2sc(C3CC3)nn12,-8%,0.84
Cc1nc(CN2CCN(S(=O)(=O)c3ccc(C(N)=O)o3)CC2)nc2ccccc12,-10%,0.94
O=C(NC[C@H]1Cn2cc(-c3ccc4c(c3)OCCCO4)nc2CO1)c1cccs1,12%,-1.4
CCn1nc2nc(Nc3cc(C)cc(C)c3)cc(C)n2c1=O,-19%,2.06

Compound,% Inhibition,Z score
CN(c1cccc(NC(=O)c2ccccc2)c1)S(C)(=O)=O,-19%,2.43
CC(C)CCC1CCN([C@@H](C)C(=O)O)CC1,-2%,0.19
Cc1cc(C)n(-c2ccc(C(N)=NO[C@H]3CCCc4ccc(F)cc43)cn2)n1,15%,-1.61
C=CCNC(=O)C1(NC(=O)c2cc(Cn3cc(C)cn3)on2)CCCCC1,2%,-0.32
CC(C)c1ccc(CN2CCCN(c3ccc(NC(=O)c4ccc(F)cc4F)cc3)C2=O)cc1,-3%,0.28
Cc1cnc(NCCc2nc3ccccc3c(=O)[nH]2)nc1-c1ncnn1C,-9%,1.29
CCc1nsc(N2CCCC(C)C2CO)n1 (centres undefined),-5%,0.7
CCOC(=O)C1CCN(C(=O)[C@H](C)NC(=O)c2cc3n(n2)CCCN(Cc2cccc(C)c2)C3=O)CC1,-7%,0.83
COC(=O)[C@]1(C)CN(C(=O)Nc2c[nH]nc2-c2nccs2)C[C@H]1C,7%,-1.07
CCCOc1cccc2c(NC[C@H]3CC(=O)N(C4CC4)C3)ccnc12,-3%,0.49
CO[C@@H](CNS(=O)(=O)c1c(C)csc1C(=O)O)C1CCCC1,-6%,1.16
COc1cc(NC(=O)c2ccccc2)c(C(=O)N2CCN(c3ccccc3)CC2)cc1OC,-9%,1.79
O=C(NCc1cc(F)c(Cl)cc1F)N1C2CCC1CC(O)C2 (centres undefined),-1%,0.27
Cc1cc(C(F)(F)F)nc2[nH]nc(N3C(=O)C4CCCCC4C3=O)c12 (centres undefined),5%,-0.68
Fc1ccc2nc(C3CC3)cc(-c3nc([C@H]4CCOC4)no3)c2c1,-4%,0.56
O=C(Nc1ccccc1N1CCCC1)[C@H]1CCCN(C(=O)c2ccoc2)C1,-13%,1.46
CO[C@H]1CCN(C(=O)CC(=O)Nc2cccc(Cl)c2C)C1,2%,-0.44
CC(C)CN1C(=O)CC[C@@H]2CN(C(=O)c3cc[nH]n3)CC[C@@H]21,-7%,1.48
Cc1ccc(CN2CCCN(C(=O)C3CCN(S(=O)(=O)c4ccc(C)cc4C)CC3)CC2)cc1,25%,-3.17
